Source: the supplement of paper PMC3334620
Over roughly 33,000 sequences, “E-score (-0.5 to 0.5)” has its median near -0.056; the highest 2% begin near 0.38. The list shows a part of the results.

biological target: Stb4 (UniProt P50104); assay: PBM E-score (8-mer binding enrichment) (E-score (-0.5 to 0.5)); higher = stronger / more preferred TF binding; most listed sequences are background and not binding sites; settings: protein concentration: 200 nM; construct: GST-DNA-binding domain
Summary of the method: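 Yeast transcription factors, full-length or as DNA-binding domains, were expressed with a GST tag using PURExpress in vitro transcription/translation. At about 100-200 nM they were applied to universal all-10-mer Agilent arrays, double-stranded by primer extension on fresh or once-stripped slides. Fluorescent anti-GST detected bound protein, and masliner normalised the scans. E-scores for ungapped eight-base words, pooled with reverse complements, came from the Universal PBM Analysis Suite.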

Sequence	PBM E-score
GGGTCATA	-0.0394
GTGGTCGA	-0.288
GGCGGCTA	0.158
CCTCGCCA	-0.181
AGATCCTA	-0.309
AGACGCAC	-0.141
CCACGTGG	-0.375
ACCCACGC	-0.0243
CACCTTGA	-0.0666
TTCGAGAA	-0.207
CAGCCAAA	-0.0614
CGCTTTCC	0.202
AAGTGGTG	0.0815
CCGAGTCG	0.382
TAACGGCA	0.042
AACCTGCG	0.093
ACACTCAC	0.0622
ACTCTTAA	-0.213
ACTCATGC	-0.0572
GAATAAAA	-0.00836
AGTCACCC	0.0169
CGTCGGTA	0.294
AAACATGG	-0.155
ATGCACAA	-0.189
AGGGCAGC	-0.122

Sequence	PBM E-score
ATATGATG	-0.0789
GTTGTAAA	-0.0454
TCCTAAGA	-0.163
GCTTGATA	-0.236
ACCAGCGC	-0.24
ACGTGTAG	-0.0556
ACCACGTG	-0.181
GCATCCCC	0.123
GCATACAA	-0.0336
AACGGGAA	0.305
ACGGCGAG	-0.124
GGACTCTA	-0.24
ATATCGGG	0.306
AATGAAGT	-0.234
TCAAATGA	0.06
ACGCGCGG	0.2
ACAATCGA	-0.154
TATACTGA	-0.035
ACAAAGTG	-0.137
CTCATAGA	-0.111
CGTTTGCC	0.116
AGATAATG	0.0327
ATGAGGAC	-0.0777
GCCATCGC	-0.288
ATTATTAA	0.0806

Sequence	PBM E-score
CACGCCGG	0.215
TGAAAAAA	0.147
TGTGATAA	-0.145
AAGTGCAA	-0.154
CACATGGA	-0.239
TGATTCAA	-0.0277
CAACCGGG	0.263
TCGCCCAA	-0.207
ATGAATAC	0.00705
AGAAGTCC	-0.0141
CCGGCCGG	0.38
CTGAACGC	-0.041
CAATACGC	-0.0742
AGGTGAGG	-0.192
GCCCTGCC	0.0895
CCCGGCAA	0.31
GCATCACC	-0.0121
TTCCTAAA	-0.159
GGTGACAA	-0.0842
ATTAAGTC	-0.0488
CATAATCG	0.153
CTACCGCA	-0.0588
AAGAGGTG	-0.0351
ACTCTAAA	-0.0867
CTGAAGTC	0.0307

Sequence	PBM E-score
GCTTGCCA	-0.126
AGCGCGCT	-0.199
TCGGCGAA	0.312
ACTACTAG	0.0369
AGGTATTA	-0.0306
AGGCTTAA	-0.0797
AAATGAAA	0.114
CGTCGGAA	0.452
CGACTCGA	0.0278
ATCTCCGC	0.151
GGTATGTA	0.0188
CAAGAACA	-0.148
ACCCATCT	-0.027
CCACTTGC	-0.223
CGCAAAGC	0.104
ACGAGGGA	-0.0722
CTCCGAAA	0.357
GAGATGGA	-0.0422
CTCAGGAA	-0.196
GATTAGGA	0.0212
CTGAGACA	-0.266
TTAAGCAA	-0.0753
AGTTTAAG	-0.218
ATCCAGTG	-0.0566
CCGCGTTA	0.173

Sequence	PBM E-score
GCCGGACA	0.154
ACGTCGGG	0.349
GCGCTCGA	-0.176
TAATTCTA	-0.0127
CTCCTGGA	-0.388
AGCCCATA	-0.14
GACTGTGA	-0.0634
CTAGATGC	-0.163
AGGATTCC	0.0488
AGCTCTTA	-0.136
GGCCGCCA	-0.255
CCATCTCC	0.162
AGGAACCT	-0.0592
ACTCGCTC	-0.114
ATAGGCAA	-0.199
ATGTTATA	0.00304
GAATTACA	0.0557
GCGGGAAA	0.306
ATGTCGGA	0.389
AGATCGAA	-0.0342
GGCTGAAA	-0.0623
CTCTCGCC	-0.112
AGTGGCCG	0.102
CGTGACCC	0.128
GTTTCTTA	-0.172

Sequence	PBM E-score
CCCATCGC	-0.0498
AGATAGTC	-0.0955
AAAAGGTT	-0.106
ATTCATCC	0.202
CAGTGATC	-0.082
CCATAATA	-0.0506
CCCTGAGG	-0.304
TCTAGAGA	-0.256
CGTATTAG	0.00072
GAGAAACA	-0.138
CGGAGGGA	0.205
ATCCCTAA	-0.183
CGGCCAAC	0.114
GCAGCGGC	0.0994
AAAGCCGC	0.12
GAGTGTGA	-0.127
CACACGTA	-0.375
CCGTTGCG	0.0426
ACGGTTAT	0.206
CAATGAGA	-0.238
ACCGTCCT	-0.13
CCTTGGAG	-0.196
AACGATTG	-0.109
AAATTGGA	-0.152
ACCAGGTA	-0.108

Sequence	PBM E-score
AGGTAGTG	0.017
AATAATAA	-0.109
TCACGCCA	-0.0816
GTCCAAGA	-0.118
AAGTACCA	0.0732
AGACTCCA	-0.249
TAGTTGAA	0.0129
TATAGGCA	-0.243
AATTAAAT	-0.0575
CAGCCGAG	0.409
CCATTTCC	0.186
GCGTTTTA	-0.0316
CACGATAC	-0.0122
CATTGGGC	-0.126
GACTTCAC	-0.0153
ATCCTTCA	-0.0298
GCGAGCGC	-0.103
GCACTCAC	-0.0367
GGCTTAAA	0.104
TGAAGCCA	-0.175
AAGCTGGT	-0.165
CCACGTTC	-0.00115
